Source: US20230278972A1, “SUBSTITUTED HALOALKYL SULFONANILIDE HERBICIDES” (FMC Corporation, priority 2020, published 2023)

Columns and labels:
[1] = system: sedge, umbrella (small-flower umbrella sedge, Cyperus difformis); experiment: Test B flooded paddy test, sedge, umbrella; conditions: for Plant response rating, Sedge, Umbrella: Flood, 250 g ai/ha, visual rating after 13 to 15 days, scale of 0 to 100 where 0 is no effect and 100 is complete control; for pest or weed control at 250 g/ha: Cyperus difformis, 336 h, read-out: Plant response rating, Sedge, Umbrella
[2] = system: barnyardgrass (Echinochloa crus-galli); experiment: Test B flooded paddy test, barnyardgrass; conditions: Flood, 250 g ai/ha; visual rating after 13 to 15 days; scale of 0 to 100 where 0 is no effect and 100 is complete control
rice (Oryza sativa) = experiment: Test B flooded paddy test, rice; conditions: Flood, 250 g ai/ha; visual rating after 13 to 15 days; scale of 0 to 100 where 0 is no effect and 100 is complete control
[3] = system: ducksalad (Heteranthera limosa); experiment: Test B flooded paddy test, ducksalad; conditions: Flood, 250 g ai/ha; visual rating after 13 to 15 days; scale of 0 to 100 where 0 is no effect and 100 is complete control

Structure (SMILES)	pest or weed control at 250 g/ha [1] [%]	further results
COc1cc(-c2cc(N(S(=O)(=O)C(F)(F)F)S(=O)(=O)C(F)(F)F)c(C)cc2C)c(=O)n(C)n1 [Compound 35]	–	Plant response rating, Sedge, Umbrella [1]: 85; Plant response rating, Barnyardgrass [2]: 0; Plant response rating, Rice (rice (Oryza sativa)): 0; Plant response rating, Ducksalad [3]: 0
Cc1cc(Br)c(NS(=O)(=O)C(F)(F)F)cc1C(=O)N1CCOCC1 [Compound 14]	–	Plant response rating, Sedge, Umbrella [1]: 90; Plant response rating, Barnyardgrass [2]: 0; Plant response rating, Rice (rice (Oryza sativa)): 10; Plant response rating, Ducksalad [3]: 20
COCC1(COC)CC(c2cc(NS(=O)(=O)C(F)(F)F)c(C)cc2C)=NO1 [Compound 104]	–	Plant response rating, Sedge, Umbrella [1]: 75; Plant response rating, Barnyardgrass [2]: 0; Plant response rating, Rice (rice (Oryza sativa)): 0; Plant response rating, Ducksalad [3]: 35
Cc1cc(C)c(N(S(=O)(=O)C(F)(F)F)S(=O)(=O)C(F)(F)F)cc1C1=NOC2(CCCCC2)C1 [Compound 198]	–	Plant response rating, Sedge, Umbrella [1]: 98; Plant response rating, Barnyardgrass [2]: 70; Plant response rating, Rice (rice (Oryza sativa)): 0; Plant response rating, Ducksalad [3]: 90
Cc1cc(C)c(C(=O)N2CCCCC2)cc1NS(=O)(=O)C(F)(F)F [Compound 260, N-[2,4-Dimethyl-5-(1-piperidinylcarbonyl)phenyl]-1,1,1-trifluoromethanesulfonamide]	95	–
Cc1cc(C)c(N(COC(=O)CC(C)C)S(=O)(=O)C(F)(F)F)cc1C1=NOC2(CCCC2)C1 [Compound 152]	–	Plant response rating, Sedge, Umbrella [1]: 70; Plant response rating, Barnyardgrass [2]: 95; Plant response rating, Rice (rice (Oryza sativa)): 0; Plant response rating, Ducksalad [3]: 35
Cc1cc(C)c(C(=O)N2CCC(F)(F)CC2)cc1NS(=O)(=O)C(F)(F)F [Compound 241, N-[5-[(4,4-Difluoro-1-piperidinyl)carbonyl]-2,4-dimethylphenyl]-1,1,1-trifluoromethanesulfonamide]	98	–
Cc1cc(C)c(C2=NOC3(CCCC3)C2)cc1NS(=O)(=O)C(F)(F)F [Compound 207, N-[2,4-Dimethyl-5-(1-oxa-2-azaspiro[4.4]non-2-en-3-yl)phenyl]-1,1,1-trifluoromethanesulfonamide]	98	–
Cc1cc(C)c(N(COC(=O)C(C)(C)C)S(=O)(=O)C(F)(F)F)cc1C1=NOC2(CCCCC2)C1 [Compound 159, [[2,4-Dimethyl-5-(1-oxa-2-azaspiro[4.5]dec-2-en-3-yl)phenyl][(trifluoromethyl)sulfonyl]amino]methyl 2,2-dimethylpropanoate]	70	–
Cc1cc(C)c(C2=NOC3COCCC23)cc1NS(=O)(=O)C(F)(F)F (stereo not shown) [Compound 121, N-[2,4-Dimethyl-5-(3a,4,7,7a-tetrahydro-5H-pyrano[4,3-d]isoxazol-3-yl)phenyl]-1,1,1-trifluoromethanesulfonamide]	70	–
Cc1cc(C)c(N(COC(=O)C(C)(C)C)S(=O)(=O)C(F)(F)F)cc1C1=NO[C@@H]2CCC[C@H]12 [Compound 100, [[2,4-Dimethyl-5-[(3aR,6aR)-3a,5,6,6a-tetrahydro-4H-cyclopent[d]isoxazol-3-yl]phenyl][(trifluoromethyl)sulfonyl]amino]methyl 2,2-dimethylpropanoate]	80	–
Cc1c(NS(=O)(=O)C(F)(F)F)cc(C(=O)N2CCOCC2)c(C)c1F [Compound 190, 1,1,1-Trifluoro-N-[3-fluoro-2,4-dimethyl-5-(4-morpholinylcarbonyl)phenyl]methanesulfonamide]	80	–
Cc1cc(C)c(C(=O)N2CCOCC2)cc1NS(=O)(=O)C(F)(F)F [Compound 6, N-[2,4-Dimethyl-5-(4-morpholinylcarbonyl)phenyl]-1,1,1-trifluoromethanesulfonamide]	0	–
Cc1cc(Cl)c(NS(=O)(=O)C(F)(F)F)cc1C(=O)N1CCCCC1 [Compound 18, N-[2-Chloro-4-methyl-5-(1-piperidinylcarbonyl)phenyl]-1,1,1-trifluoromethanesulfonamide]	0	–
Cc1cc(C)c(C2=NOC3CCOCC23)cc1NS(=O)(=O)C(F)(F)F (stereo not shown) [Compound 120, N-[2,4-Dimethyl-5-(3a,6,7,7a-tetrahydro-4H-pyrano[3,4-d]isoxazol-3-yl)phenyl]-1,1,1-trifluoromethanesulfonamide]	55	–
CCc1cc(-c2cc(NS(=O)(=O)C(F)(F)F)c(C)cc2C)c(=O)n(C)n1 [Compound 34, N-[5-(6-Ethyl-2,3-dihydro-2-methyl-3-oxo-4-pyridazinyl)-2,4-dimethylphenyl]-1,1,1-trifluoromethanesulfonamide]	0	–
Cc1cc(C)c(C2=NO[C@@H]3CCC[C@H]23)cc1NS(=O)(=O)C(F)(F)F [Compound 103, N-[2,4-Dimethyl-5-[(3aR,6aR)-3a,5,6,6a-tetrahydro-4H-cyclopent[d]isoxazol-3-yl]phenyl]-1,1,1-trifluoromethanesulfonamide]	85	–
Cc1cc(C)c(N(S(=O)(=O)C(F)(F)F)S(=O)(=O)C(F)(F)F)cc1N1CCC2(CCCCC2)C1=O [Compound 267, N-[2,4-Dimethyl-5-(1-oxo-2-azaspiro[4.5]dec-2-yl)phenyl]-1,1,1-trifluoro-N-[(trifluoromethyl)sulfonyl]methanesulfonamide]	70	–
Cc1cc(Cl)c(NS(=O)(=O)C(F)(F)F)cc1C(=O)N1CCOCC1 [Compound 16, N-[2-Chloro-4-methyl-5-(4-morpholinylcarbonyl)phenyl]-1,1,1-trifluoromethanesulfonamide]	95	–
Cc1c(NS(=O)(=O)C(F)(F)F)cc(C(=O)N(C)C)c(C)c1F [Compound 128, 3-Fluoro-N,N,2,4-tetramethyl-5-[[(trifluoromethyl)sulfonyl]amino]benzamide]	90	–
Cc1cc(C)c(N2CCC3(CCCCC3)C2=O)cc1NS(=O)(=O)C(F)(F)F [Compound 278, N-[2,4-Dimethyl-5-(1-oxo-2-azaspiro[4.5]dec-2-yl)phenyl]-1,1,1-trifluoromethanesulfonamide]	85	–
Cc1cc(C)c(N(COC(=O)C(C)(C)C)S(=O)(=O)C(F)(F)F)cc1N1CCC2(CCCCC2)C1=O [Compound 268, [[2,4-Dimethyl-5-(1-oxo-2-azaspiro[4.5]dec-2-yl)phenyl][(trifluoromethyl)sulfonyl]amino]methyl 2,2-dimethylpropanoate]	70	–
Cc1cc(Cl)c(NS(=O)(=O)C(F)(F)F)cc1C(=O)N1CCC(F)(F)CC1 [Compound 229, N-[2-Chloro-5-[(4,4-difluoro-1-piperidinyl)carbonyl]-4-methylphenyl]-1,1,1-trifluoromethanesulfonamide]	95	–
Cc1cc(C)c(C2=NOC3(CCCCC3)C2)cc1NS(=O)(=O)C(F)(F)F [Compound 197, N-[2,4-Dimethyl-5-(1-oxa-2-azaspiro[4.5]dec-2-en-3-yl)phenyl]-1,1,1-trifluoromethanesulfonamide]	98	–
Cc1cc(C)c(N(COC(=O)C(C)(C)C)S(=O)(=O)C(F)(F)F)cc1C1=NOC2(CCCC2)C1 [Compound 140, [[2,4-Dimethyl-5-(1-oxa-2-azaspiro[4.4]non-2-en-3-yl)phenyl][(trifluoromethyl)sulfonyl]amino]methyl 2,2-dimethylpropanoate]	95	–
